From patent US5834279A (priority 1997, dated 1998)

Molecular target: M. tuberculosis R2-2 (Mycobacterium tuberculosis, UniProt P9WH71)
Conditions: 15 mM hydroxyurea, 10 min

SMILES: NC(=O)NO [hydroxyurea]
- Tyrosyl radical absorbance band at 408 nm after treatment: abolished
